# Results published in the supplement of paper PMC7826260.
# The list shows a part of the results. Each Rep nickase domain was tested in vitro on the same pool of single strands at 3 µM enzyme and 37 °C for 1 h; the strands have 90 letters, of which the middle is given. Uncut reads are compared with the no-enzyme pool on a log2 scale; more negative means more cut, near 0 not cut, and no call is made. Counts are relative to all reads; uncut strands gain when others are lost, and binding without cutting may add a little.
# Tests used:
# Assay in all cases: uncleaved DNA left, log2 of reads against the no-enzyme library (log2 ratio); higher = less cleavage (more negative = more Rep cleavage of the k-mer); sequences stand for … in CTCGTCCG…ACCGGAGA
# [1] = test system: T1, Rep nickase domain of Muscovy duck circovirus
# T1 sequence (protein, residues 1-111, tag omitted): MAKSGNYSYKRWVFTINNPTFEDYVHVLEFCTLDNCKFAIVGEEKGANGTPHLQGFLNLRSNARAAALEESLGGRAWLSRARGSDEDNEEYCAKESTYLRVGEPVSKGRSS
# Experimental: (§1)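 A pool of 90-nt single-stranded DNAs with seven random bases just before the constant AC of the nick site (name = the seven bases) was cut by 3 µM recombinant His6-SUMO-tagged Rep nickase domain (300 nM DNA, 50 mM HEPES pH 8.0, 50 mM NaCl, 1 mM MnCl2, 1 h, 37 °C, three replicates). Uncut DNA was amplified and sequenced.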
# [2] = test system: T2, Rep nickase domain of banana bunchy top virus
# T2 sequence (protein, residues 1-94, tag omitted): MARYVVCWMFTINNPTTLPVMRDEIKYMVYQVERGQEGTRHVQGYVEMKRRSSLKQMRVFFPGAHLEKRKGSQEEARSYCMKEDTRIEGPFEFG
# Experimental: as §1
# [3] = test system: T3, Rep nickase domain of cabbage leaf curl virus
# T3 sequence (protein, residues 1-116, tag omitted): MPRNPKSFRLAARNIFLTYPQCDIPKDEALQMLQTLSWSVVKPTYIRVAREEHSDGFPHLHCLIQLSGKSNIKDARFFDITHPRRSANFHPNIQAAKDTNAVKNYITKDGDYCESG
# Experimental: as §1
# [4] = test system: T4, Rep nickase domain of chickpea chlorotic dwarf virus
# T4 sequence (protein, residues 1-124, tag omitted): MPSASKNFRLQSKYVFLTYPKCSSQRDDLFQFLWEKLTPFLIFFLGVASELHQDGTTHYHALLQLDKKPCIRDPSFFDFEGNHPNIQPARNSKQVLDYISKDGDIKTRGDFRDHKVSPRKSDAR
# Experimental: as §1
# [5] = test system: T5, Rep nickase domain of faba bean necrotic yellows virus
# T5 sequence (protein, residues 1-98, tag omitted): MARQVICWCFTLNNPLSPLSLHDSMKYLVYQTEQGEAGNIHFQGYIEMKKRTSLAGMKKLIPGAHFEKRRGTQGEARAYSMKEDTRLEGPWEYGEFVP
# Experimental: as §1
# [6] = test system: T6, Rep nickase domain of maize striate mosaic virus
# T6 sequence (protein, residues 1-117, tag omitted): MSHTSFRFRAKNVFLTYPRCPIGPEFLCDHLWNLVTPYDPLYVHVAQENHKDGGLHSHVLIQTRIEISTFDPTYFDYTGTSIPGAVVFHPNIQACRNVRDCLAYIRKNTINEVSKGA
# Experimental: as §1
# [7] = test system: T7, Rep nickase domain of porcine circovirus 2
# T7 sequence (protein, residues 2-116, tag omitted): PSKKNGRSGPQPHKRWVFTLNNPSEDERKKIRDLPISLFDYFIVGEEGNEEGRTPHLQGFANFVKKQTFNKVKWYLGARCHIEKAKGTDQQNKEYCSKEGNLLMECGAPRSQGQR
# Experimental: as §1
# [8] = test system: T8, Rep nickase domain of tomato golden mosaic virus
# T8 sequence (protein, residues 1-124, tag omitted): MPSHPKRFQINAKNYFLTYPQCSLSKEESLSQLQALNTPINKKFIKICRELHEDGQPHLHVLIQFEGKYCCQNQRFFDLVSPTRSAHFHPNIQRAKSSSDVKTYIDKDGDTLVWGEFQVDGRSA
# Experimental: as §1
# [9] = test system: T9, Rep nickase domain of tomato yellow leaf curl virus
# T9 sequence (protein, residues 1-136, tag omitted): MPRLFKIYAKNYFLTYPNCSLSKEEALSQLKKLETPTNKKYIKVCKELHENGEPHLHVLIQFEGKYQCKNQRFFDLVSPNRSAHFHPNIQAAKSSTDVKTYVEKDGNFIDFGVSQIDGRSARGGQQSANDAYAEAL
# Experimental: as §1
# [10] = test system: T10, Rep nickase domain of wheat dwarf virus
# T10 sequence (protein, residues 1-137, tag omitted): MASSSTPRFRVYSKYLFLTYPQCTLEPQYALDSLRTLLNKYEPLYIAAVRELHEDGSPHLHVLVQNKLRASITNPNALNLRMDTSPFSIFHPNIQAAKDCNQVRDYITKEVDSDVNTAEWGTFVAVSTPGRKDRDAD
# Experimental: as §1
Sequence,uncleaved DNA left (log2) [1],uncleaved DNA left (log2) [2],uncleaved DNA left (log2) [3],uncleaved DNA left (log2) [4],uncleaved DNA left (log2) [5],uncleaved DNA left (log2) [6],uncleaved DNA left (log2) [7],uncleaved DNA left (log2) [8],uncleaved DNA left (log2) [9],uncleaved DNA left (log2) [10]
GTACGCG,0.0989,0.0481,-0.8,-0.243,0.0168,-0.682,0.167,-0.00935,0.0374,-0.0218
ACAAACC,-0.0843,-0.0198,-0.236,-0.755,-0.152,-0.794,-0.263,0.00825,-0.0273,0.0531
ATAGCCA,-0.151,-0.0397,-0.228,-1.24,0.0313,-0.913,-0.127,-0.0132,-0.0595,-0.103
GTATTAC,-1.51,0.0332,-0.388,0.239,-0.111,1.6,-2.98,-0.136,0.169,-0.308
GGGGGAA,0.1,0.0725,0.89,2.01,0.0143,2.37,0.158,0.154,0.0767,0.157
CCACTTC,0.127,-0.0823,-0.0761,-0.684,0.00807,-0.803,0.0569,-0.0976,-0.000406,-0.0571
AAACCGG,-0.0108,-0.013,0.315,1.09,-0.0391,1.02,-0.0576,0.0981,-0.0889,0.0601
GTTGAGT,0.184,0.0818,0.158,0.468,-0.0107,0.159,0.156,0.016,0.215,0.022
AGCGCTG,0.0167,0.0513,0.0729,0.575,-0.00973,1.77,-0.0259,0.13,-0.0335,-0.0138
CTATCTC,-0.118,-0.0931,-0.371,-0.239,-0.0559,-0.315,-0.097,-0.204,-0.0873,-0.202
TTCCAGT,0.0707,0.0352,0.0778,-0.41,-0.0311,-0.566,0.000864,-0.0851,0.0349,-0.00512
TGTCGAG,-0.134,-0.101,-0.169,-0.0562,-0.036,-0.765,-0.11,-0.13,-0.0998,-0.0825
CCCCGAT,0.046,-0.0328,0.142,0.104,-0.0677,0.00373,-0.131,0.111,-0.0783,-0.039
ATTGGTA,-0.0192,-0.0642,0.0211,0.0072,0.111,0.0983,-0.0191,0.169,0.0453,0.205
TACTGTG,0.106,-0.0554,-0.653,-0.538,-0.0448,-1.14,0.00621,-0.0903,-0.00397,-0.141
CTCAGCC,0.0192,-0.008,-0.0759,-0.472,-0.0648,-0.957,-0.0349,-0.0666,-0.0397,-0.0244
CTGACGA,-0.216,-0.184,-0.27,-0.191,-0.112,-0.732,-0.111,-0.164,-0.276,-0.153
ATATGTG,0.0776,-0.0564,-0.769,-0.074,-0.00417,-1.03,0.0892,-0.0581,0.0894,-0.117
CTACACG,0.0492,-0.0973,-1.17,-0.955,-0.0417,-1.16,0.105,-0.0179,-0.203,-0.121
GAACCCA,-0.136,0.00418,0.211,-0.787,-0.0788,0.904,-0.514,-0.0665,0.033,0.113

Sequence,uncleaved DNA left (log2) [1],uncleaved DNA left (log2) [2],uncleaved DNA left (log2) [3],uncleaved DNA left (log2) [4],uncleaved DNA left (log2) [5],uncleaved DNA left (log2) [6],uncleaved DNA left (log2) [7],uncleaved DNA left (log2) [8],uncleaved DNA left (log2) [9],uncleaved DNA left (log2) [10]
AGGTTGC,-0.0559,-0.0528,-0.71,-0.398,0.00661,-1.14,0.163,-0.0192,0.0157,-0.0568
GTCGTAA,0.105,0.262,0.41,0.948,0.214,1.87,0.141,0.124,0.0911,0.18
TCAACCG,-0.179,0.00852,-0.859,-1.32,-0.00686,-1.01,-0.0461,-0.0941,-0.0786,-0.0921
TTCTACC,-2.14,-0.21,-0.238,-2.2,-0.266,-0.261,-2.76,-0.193,-0.0874,-0.293
AATTCTG,-0.117,-0.0264,0.0318,0.482,-0.0644,0.543,-0.00509,0.0247,-0.124,0.031
GCGTCGA,-0.135,0.037,-0.0882,-0.119,-0.0544,-0.526,-0.0489,0.102,0.0887,0.0396
CTCCATT,-0.156,0.0027,-0.0458,-1.77,-0.148,-0.744,-0.736,-0.116,-0.0162,0.00198
TTTTGTT,-3.23,-1.63,-1.02,-2.6,-0.198,-1.19,-3.22,-0.478,-0.154,-1.4
TCTTTGA,-0.0424,0.0542,-0.00782,-0.294,0.0403,-0.741,0.012,-0.0348,0.0262,0.0295
TGAAGGA,0.0951,-0.0176,0.156,0.328,-0.0249,-0.185,0.0896,-0.049,0.021,0.0891
ACGGATT,-0.14,-0.221,-0.0765,-0.736,0.000931,0.607,-0.142,-0.00653,-0.204,-0.0834
AAAGGCT,0.153,0.248,0.207,1.09,0.0676,1.36,0.201,0.168,-0.0354,0.0462
GGGAGTA,-0.0983,-0.0376,0.765,1.84,-0.112,2.07,0.168,-0.00498,-0.0647,0.0114
GTACATG,0.0492,0.0339,0.336,0.724,0.0613,0.738,0.168,-0.0744,0.0478,0.113
ATAAACC,-0.0605,-0.0161,-0.134,-0.949,-0.0353,-0.809,-0.331,0.029,-0.0524,-0.0134
ACTATGG,-0.00714,-0.00488,-0.577,-0.398,-0.0469,-1.31,0.12,-0.107,-0.0286,-0.109
GCCTAAG,-0.177,-0.0636,-0.584,-0.478,-0.221,-1.2,0.147,-0.15,-0.113,-0.263
CATGACT,-0.071,-0.166,-0.339,-2.45,-0.107,-0.315,-0.36,-0.0668,-0.125,-0.161
ACCAGAC,0.0136,-0.073,-0.0389,0.255,0.00883,-0.417,0.209,0.0889,0.031,-0.031
GTACCGT,-0.00795,0.109,0.244,0.438,-0.0523,0.849,-0.099,0.0373,0.0309,0.0557

Sequence,uncleaved DNA left (log2) [1],uncleaved DNA left (log2) [2],uncleaved DNA left (log2) [3],uncleaved DNA left (log2) [4],uncleaved DNA left (log2) [5],uncleaved DNA left (log2) [6],uncleaved DNA left (log2) [7],uncleaved DNA left (log2) [8],uncleaved DNA left (log2) [9],uncleaved DNA left (log2) [10]
GTAACTC,0.123,0.101,0.29,0.76,0.0305,1.55,0.223,0.0785,0.152,0.166
GTGACAT,0.132,0.221,0.953,2.19,0.0316,2.39,0.296,0.128,0.0708,0.242
GGACCAA,0.000373,0.123,0.797,1.68,0.077,2.12,0.169,0.0103,0.108,0.177
CAAGCGG,0.0212,0.0582,0.362,1.34,-0.0244,1.42,0.0845,0.0871,-0.154,0.0387
GATTGCC,-0.00539,-0.0228,-0.558,-0.419,-0.0218,-0.987,0.0767,-0.0559,0.0118,-0.154
TTACGTC,-0.0525,-0.14,-0.0214,-1.29,-0.0278,-0.763,-0.201,-0.0711,0.0249,-0.0579
CAGATAT,-0.248,-0.217,0.24,-0.438,-0.0677,0.346,-3.14,0.123,-0.124,0.0977
TATAACC,-0.253,-0.0929,-0.382,-2.15,-0.104,-0.596,-1.1,-0.0649,-0.0454,-0.0866
CTGCCTA,-0.106,-0.0652,-0.154,-0.789,-0.0615,-0.764,-0.231,-0.0925,-0.00845,-0.0694
TCGTTAG,0.0339,-0.035,-0.186,-0.0384,0.0445,-0.839,0.0722,0.0381,0.0465,0.0234
GTTCGAG,0.00318,0.0306,0.435,1.12,0.0208,0.899,0.148,-0.0095,-0.0681,0.166
AGACAGG,0.104,0.00747,0.187,0.855,0.00982,0.337,0.248,0.187,0.0245,0.0525
TTTAAGG,0.124,0.0922,0.564,1.52,0.036,1.94,0.12,0.176,-0.112,0.117
GCTCGTA,0.0451,0.162,0.0574,0.295,0.0531,0.229,0.137,0.135,0.0203,0.152
ATCCGTA,-0.0343,-0.0518,-0.119,-0.733,0.0448,-0.892,-0.0429,-0.0513,-0.0119,0.0235
AAGGTAT,-0.0878,-0.0277,0.152,1.49,0.0211,1.89,0.104,0.0725,-0.26,0.0181
AACGGGT,0.0872,0.0461,0.352,1.48,-0.0693,1.82,0.225,0.152,-0.0127,-0.0188
TGGTAAT,-0.568,0.0182,0.37,0.51,-0.278,1.6,-3.38,-0.0848,-0.00281,-0.0224
AGGGCTG,-0.0203,-0.0209,0.186,0.873,0.00454,1.83,0.225,0.13,-0.191,-0.0787
CGACGAC,0.132,-0.0266,0.0696,0.606,0.00498,0.821,0.0709,-0.00756,-0.0682,0.0641
